The record followed here is the supplement of paper PMC10441789.

The list shows a part of the results. Antibody binding of pooled human sera (four to six donors per pool; dilution not stated) to peptides of the Trypanosoma cruzi antigen TSSA on microarrays. Quantile-normalised fluorescence in arbitrary units, mean of duplicate arrays; higher = more binding. No active / inactive call. The uninfected pools are read here as the healthy donors of the same country. The strongest signals lie near the top of the scale (about 60,000).

The assay concerns pooled sera of uninfected people, Brazil. Briefly: antibody binding signal (normalised fluorescence) (arbitrary fluorescence units); higher = stronger serum antibody binding to peptide. As for the experimental part: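 Microarray of overlapping 15-residue peptides of the four Trypanosoma cruzi TSSA reference variants and 8- to 13-residue peptides of TSSAII 24-62, probed with one serum pool per country.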
STPPSGTENK yielded an antibody binding signal of 291.
For PATGEAPS the value was 178; for PSPSGASSGEAEASS, 125.
For TSSTPPSGTENKP the value was 649; for GGSTSSTPPGTDKKT, 112; for ANGGSTSSTPPSGTE, 185.
In turn, NGGSTISTPPSGTEK yielded an antibody binding signal of 555.
AAGGTPSPSGASSGE yielded an antibody binding signal of 142.
STPPSGTENKPA: the antibody binding signal is 697.
Take TDKKTAAGEAPSPSG: the antibody binding signal came out at 184.
To NGGSTSSTPPSGTEN belongs 209; to STPPGTDKKTAAGGT, 1700.
In turn, QPGASSGEAEAS showed an antibody binding signal of 107.
To TANGGSTISTPPSGT belongs 171; to PSGTDKKTAAGEAPS, 269; to GGSTISTPPSGTEKK, 175.
In turn, PSQPGASSGEAE came in with an antibody binding signal of 108.
As for SSGEAEAS, the antibody binding signal was determined as 99.3.
In turn, PGASSGEAEASS displayed an antibody binding signal of 115.
To NGGSTSSTP belongs 171; to STSSTPPSGTEN, 286.
On to GTEKKAAAGEAPSPS, for which the antibody binding signal is 118.
In turn, ATGEAPSQPGASS gave an antibody binding signal of 213.
On to ASSGEAEA, for which the antibody binding signal was 125.
In turn, KPATGEAPSQPG had an antibody binding signal of 448.
To PATGEAPSQP belongs 350.
Sequence ATGEAPSQPGASSGE gave an antibody binding signal of 213.
Sequence TSSTPPSG displayed an antibody binding signal of 270.
To STISTPPSGTEKKAA belongs 242; to GTENKPATGEA, 300; to ASSGEAEASS, 117.
For PSGTENKP, the antibody binding signal worked out at 504.
Sequence LSACTTANGGSTIST returned an antibody binding signal of 144.
GASSGEAEAS showed an antibody binding signal of 104.
For GGSTSSTP the value was 134; for EAEASSNKNDGSLSS, 126; for KPATGEAPSQP, 310.
To ANGGSTSSTPP belongs 254; to STPPSGTE, 93.3; to PATGEAPSQPGASSG, 545.
